From PubChem BioAssay AID1240 (Sanford-Burnham Center for Chemical Genomics, 2008) come the findings set out here.

In all, about 50,000 compounds went through this assay and about 800 (1.6%) showed an effect of 50% or more. This is one part of the list.

For this assay, the target named is Bcl-2-like protein 10 (Homo sapiens) (UniProt Q9HD36). Put plainly: TR3 peptide-Bcl-B binding displacers, biochemical primary FP assay, phenotype converters (AID 1240).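 Also: 0% = Bcl-B with tracer peptide and DMSO and 100% = tracer peptide lacking Bcl-B.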 The note with it: GST-Bcl-B / FITC-TR3 peptide fluorescence polarization; stronger effect = higher value; compound at 3.75 mg/L. Background: Polarisation of emitted light reports the rotation of a fluorescent probe.
Sequence of UniProt Q9HD36 (Q9HD36 whole entry, looked up): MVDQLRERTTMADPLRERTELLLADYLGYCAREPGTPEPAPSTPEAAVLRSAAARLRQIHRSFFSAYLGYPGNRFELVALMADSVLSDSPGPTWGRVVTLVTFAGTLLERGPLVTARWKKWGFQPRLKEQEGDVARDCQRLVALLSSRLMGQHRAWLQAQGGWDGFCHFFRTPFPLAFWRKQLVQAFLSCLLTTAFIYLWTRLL
`CCCC1(O)CC(c2ccccc2)NC(c2ccccc2)C1C` (stereo unspecified): the displacement came to 4.2%. On to `O=C(CN1C(=O)c2ccccc2C1=O)N1CCN(C(=O)c2ccccc2)CC1`, for which the displacement is 11%. Regarding `OCCNc1nc(-c2ccccc2Cl)nc2ccccc12`, the displacement is 7.5%.

`CCCC(=O)NC(c1ccco1)c1c(O)ccc2ccccc12` (stereo unspecified): the displacement worked out at 6.6%. For the compound `CCOC(=O)C1=NN(C(=O)COc2ccccc2)C(O)(c2ccc(Cl)cc2)C1` (stereo unspecified), the displacement is -16.6%. Next, `CC(=O)N1CCN(c2ccc(NC(=O)c3ccccc3)cc2)CC1`: 16.9%; `CCC(C(=O)NCc1ccc(OC)cc1)c1ccccc1` (stereo unspecified): -1.6%; `COc1ccc(OC)c(NS(=O)(=O)c2cccc([N+](=O)[O-])c2)c1`: 2.1%. For `COc1cc(C)c(CNCc2ccc(OC)c(OC)c2)cc1C`, the displacement amounted to 10.8%. Turning to `CCc1ccc(C(=O)CC(c2ccccc2)C2CCCCC2=O)cc1` (stereo unspecified), the displacement is -0.9%.

Take `COc1ccc(CCNC(=O)c2cccc(Cl)c2)cc1`: the displacement was -7.3%. In the case of `O=[N+]([O-])c1ccc(N2CCCC2)c(C(F)(F)F)c1`, the displacement was 13%.

`Cc1ccc(NS(=O)(=O)c2cccc([N+](=O)[O-])c2)cc1Cl`: the displacement is -0.2%. As for `Cc1onc(-c2ccccc2Cl)c1C(=O)N1CCN(c2ccc(Cl)cc2[N+](=O)[O-])CC1`, the displacement was -0.6%. In the case of `CC(=O)CCc1c(C)c2cccc(C)c2[nH]c1=S`, the displacement is 0.7%.

Regarding `Cc1nc2nc(-c3ccccc3)[nH]c2cc1Br`, the displacement was found to be 2.6%. For `OCCCc1nc2ccccc2n1Cc1ccc2ccccc2c1`, the displacement was 8.4%. On to `CC1=[N+]([O-])C(C)(C)C(c2ccc(C)cc2)=[N+]1[O-]`, for which the displacement turned out to be 12.9%. As for `CC1=C(C(=O)OC2CCCCC2)C(c2ccncc2)C2=C(CCCC2=O)N1` (stereo unspecified), the displacement was -4.5%.

For the compound `O=C(Nc1ccc(-c2nc3ccccc3s2)c(O)c1)c1ccc(Cl)cc1Cl`, the displacement is -0.6%.

On to `c1ccc2oc(N3CCOCC3)nc2c1`, for which the displacement is -3.8%.

Take `COc1ccc(C(=O)Nc2sc3c(c2C#N)CC(C)(C)SC3)cc1[N+](=O)[O-]`: the displacement was -6.1%. Next, `O=C(NCc1ccc2c(c1)OCO2)c1cccc(I)c1`: 6.6%; `O=C1NN(c2ccc(F)cc2)C(=O)/C1=C\c1ccc(F)cc1`: -11.6%. Next, `Cc1ccccc1OCCSc1nc2ccccc2n1CCO`: 3%; `CCOc1ccccc1NC(=O)COc1ccc(Br)cc1`: -5.2%; `COC(=O)c1cc(NC(=O)/C=C/c2cccc([N+](=O)[O-])c2)cc(C(=O)OC)c1`: 10.4%. Next, `CCOC(=O)c1c(NC(=O)c2ccccc2)sc2c1CCC/C2=N/O`: -0.2%; `CCC(=O)N1CCN(c2cc(C)c([N+](=O)[O-])cc2F)CC1`: -11%; `COc1ccc(CCNc2cc(N3CCN(C)CC3)ccc2[N+](=O)[O-])cc1OC`: 6.6%.

As for `COc1ccc(C2CC(=O)C3=C(C2)Nc2ccccc2NC3c2cc(OC)ccc2OC)cc1` (stereo unspecified), the displacement was -6.1%. For the compound `Cc1nn(C(=O)c2ccncc2)c(C)c1Sc1ccc(Br)cc1`, the displacement is -4.5%.

`CCOC(=O)C1=C(C)NC(=O)NC1c1ccc(N2CCOCC2)cc1` (stereo unspecified): the displacement was -7.7%. For `COc1ccc2c(c1)N(S(=O)(=O)c1ccc(NC(C)=O)cc1)C(C)(C)C=C2C`, the displacement turned out to be 3.8%. For `O=C(NCCCN1CCOCC1)c1cc(-c2ccccc2)nc2ccccc12`, the displacement is -8.6%. For `O=C1NC(=S)N/C1=C\c1ccc(-c2cc([N+](=O)[O-])ccc2Br)o1`, the displacement came out at 1.6%. Next, `Cc1cc(C(=O)N/N=C/c2ccccc2OCC(=O)O)n[nH]1`: -16%; `CC(=O)OCCNC(=O)/C(=C\c1ccc2c(c1)OCO2)NC(=O)c1ccco1`: -15.6%. For the compound `O=C(c1cccnc1)N1CCN(c2ccc(F)cc2)CC1`, the displacement is -9%. As for `N#CC1=C(N)Oc2cc(N)ccc2C1c1cccs1` (stereo unspecified), the displacement is -0.5%. As for `Fc1ccc(-c2noc(-c3ccc(Br)cc3)n2)cc1`, the displacement was -5.1%. Next, `O=C1NC(=O)N(c2ccc(Br)cc2)C(=O)/C1=C/c1ccc(F)cc1`: 0.4%; `Cc1nc(-c2ccccc2)sc1C(N)=O`: 14.3%; `COc1ccc2c(c1OC)C(=O)OC2Nc1ccc(Br)cc1` (stereo unspecified): -12.6%. For the compound `CC1=NN(c2ccccc2)C(=O)/C1=C\c1ccc(-c2ccc3c(c2)C(=O)NC3=O)o1`, the displacement is 10.9%. With `c1ccc(COc2ccc(C3Nc4cccc5cccc(c45)N3)cc2)cc1`, the displacement came out at 5.8%. `COc1ccc(NC(=O)C(=O)NC2CCCC2)cc1`: the displacement is 6.1%. In the case of `Cc1ccc(N2C(=O)NC(=O)/C(=C\c3ccc4c(c3)OCO4)C2=O)cc1C`, the displacement was found to be 2.1%. Next, `Cc1sc(NC(=O)C2C3C=CC(C3)C2C(=O)O)nc1-c1ccccc1` (stereo unspecified): -1.3%. Next, `Cc1ccc2oc(-c3cccc(NC(=O)COc4ccccc4[N+](=O)[O-])c3C)nc2c1`: -1.9%. For the compound `COc1ccc(C(=O)Nc2cccc(-c3nc4ccccc4o3)c2C)cc1`, the displacement was -0.6%. Regarding `O=C(NCCc1ccccc1Cl)C(=O)NCc1ccco1`, the displacement is 10.9%. As for `CCOc1ccccc1C(=O)Nc1cccc(OC)c1`, the displacement is -1.6%. On to `COc1ccc(/C=C/C(=O)NCc2ccc(Cl)cc2)cc1`, for which the displacement was -10.3%. For `COc1ccc(C(=O)N2CCN(Cc3ccccc3)CC2)cc1[N+](=O)[O-]`, the displacement was determined as 14.1%. For the compound `Cc1ccc(CN2CCN(/N=C\c3cccc(O)c3)CC2)cc1`, the displacement was -8.1%.

With `CCOc1cc(OCC)cc(C(=O)Nc2cc(-c3nc4ccccc4s3)ccc2C)c1`, the displacement came out at 4.1%. Turning to `CC(=O)OCCCN1C(=O)c2ccccc2C1=O`, the displacement is 4.4%. Regarding `Cc1ccc(/C=C2/SC(=S)N(C(C)C(=O)O)C2=O)cc1` (stereo unspecified), the displacement is 12.4%. For the compound `COc1ccccc1NS(=O)(=O)c1cccc2c1C(=O)c1ccccc1C2=O`, the displacement was 3%.

As to `COc1ccc(C(O)(C(=O)NCc2ccc(N(C)C)cc2)c2ccc(OC)cc2)cc1`, the displacement was -1.9%. Take `COc1ccc(OC(=O)c2ccc(OC)c(S(=O)(=O)N3CCOCC3)c2)cc1`: the displacement is -2.7%.

Take `S=C(Nc1ccccc1)Nc1ccc(Cl)cc1`: the displacement was 6.9%.

Turning to `O=[N+]([O-])c1ccc2[nH]c(O)c(C=NCc3ccccc3)c2c1`, the displacement is -3.4%.

With `O=C1OC2C=CC(Br)=CC2C=C1C(=O)N1CCSC1c1ccc2c3c(cccc13)CC2` (stereo unspecified), the displacement was found to be 24.2%. For `C=CCNC(=O)C(=O)Nc1ccccc1OC`, the displacement is 10.1%. `O=C(Nc1ccc(-c2cnc(-c3ccc(NC(=O)c4ccco4)cc3)nc2)cc1)c1ccco1`: the displacement was found to be 24.6%. `O=C(O)C1C(C(=O)Nc2ccc(I)cc2)C2C=CC1C21CC1` (stereo unspecified): the displacement is -1.2%. With `CC(=O)CC(=O)Nc1cc(C(F)(F)F)ccc1Cl`, the displacement was determined as 0.4%. With `Cc1ccccc1OCCNC(=O)CCc1ccccc1`, the displacement is -21.6%. Next, `Cc1ccc(C(=O)Oc2cccc(C3C4=C(Nc5c3c(=O)n(C)c(=O)n5C)c3ccccc3C4=O)c2)cc1` (stereo unspecified): 12.9%.
